{"source": "a collection of fitness landscapes (doi:10.1126/science.1257360)", "parents": {"B1": {"name": "PhoQ; a variant is named by its letters at X, in order, P23837 (parent)", "chain": "MKKLLRLFFPLSLRVRFLLATAAVVLVLSLAYGMVALIGYSVSFDKTTFRLLRGESNLFYTLAKWENNKLHVELPENIDKQSPTMTLIYDENGQLLWAQRDVPWLMKMIQPDWLKSNGFHEIEADVNDTSLLLSGDHSIQQQLQEVREDDDDAEMTHSVAVNVYPATSRMPKLTIVVVDTIPVELKSSYMVWSWFIYVLSANLLLVIPLLWVAAWWSLRPIEALAKEVRELEEHNRELLNPATTRELTSLVRNLNRLLKSERERYDKYRTTLTDLTHSLKTPLXXLQXXLRSLRSEKMSVSDAEPVMLEQISRISQQIGYYLHRASMRGGTLLSRELHPVAPLLDNLTSALNKVYQRKGVNISLDISPEISFVGEQNDFVEVMGNVLDNACKYCLEFVEISARQTDEHLYIVVEDDGPGIPLSKREVIFDRGQRVDTLRPGQGVGLAVAREITEQYEGKIVAGESMLGGARMEVIFGRQHSAPKDE"}}, "note": "This is one part of the list."}
{"variants_of": "B1", "assay": "enrichment ratio after two sorts for PhoP signalling (ratio (wild type AVST 3.29)); higher = more functional", "settings": "with PhoP (E. coli)"}
{"variant": "SLII", "enrichment ratio": "≤ 0.25"}
{"variant": "EPYM", "enrichment ratio": "≤ 0.25"}
{"variant": "NKNI", "enrichment ratio": "≤ 0.25"}
{"variant": "GEVA", "enrichment ratio": "≤ 0.25"}
{"variant": "KLAT", "enrichment ratio": "≤ 0.25"}
{"variant": "WHWD", "enrichment ratio": "≤ 0.25"}
{"variant": "NMYN", "enrichment ratio": "≤ 0.25"}
{"variant": "DALC", "enrichment ratio": "≤ 0.25"}
{"variant": "VCRH", "enrichment ratio": "≤ 0.25"}
{"variant": "LLYA", "enrichment ratio": "≤ 0.25"}
{"variant": "HRLS", "enrichment ratio": "≤ 0.25"}
{"variant": "FKRD", "enrichment ratio": "≤ 0.25"}
{"variant": "FWRA", "enrichment ratio": "≤ 0.25"}
{"variant": "KETT", "enrichment ratio": "≤ 0.25"}
{"variant": "NYFH", "enrichment ratio": "≤ 0.25"}
{"variant": "ILGR", "enrichment ratio": "≤ 0.25"}
{"variant": "RNSV", "enrichment ratio": "≤ 0.25"}
{"variant": "AVQF", "enrichment ratio": 2.87}
{"variant": "QVNS", "enrichment ratio": 2.28}
{"variant": "SCDY", "enrichment ratio": "≤ 0.25"}
{"variant": "DTCA", "enrichment ratio": "≤ 0.25"}
{"variant": "VIRE", "enrichment ratio": "≤ 0.25"}
{"variant": "MDDR", "enrichment ratio": "≤ 0.25"}
{"variant": "IYDL", "enrichment ratio": "≤ 0.25"}
{"variant": "TGEL", "enrichment ratio": "≤ 0.25"}
{"variant": "SFIG", "enrichment ratio": 4.64}
{"variant": "RGHT", "enrichment ratio": "≤ 0.25"}
{"variant": "IGHH", "enrichment ratio": 2.36}
{"variant": "RTLR", "enrichment ratio": "≤ 0.25"}
{"variant": "KEMA", "enrichment ratio": "≤ 0.25"}
{"variant": "WLNL", "enrichment ratio": "≤ 0.25"}
{"variant": "HGTL", "enrichment ratio": 6.22}
{"variant": "PRAM", "enrichment ratio": "≤ 0.25"}
{"variant": "SICF", "enrichment ratio": 9.88}
{"variant": "MSSV", "enrichment ratio": 9.84}
{"variant": "THAI", "enrichment ratio": 14.8}
{"variant": "FAAN", "enrichment ratio": "≤ 0.25"}
{"variant": "VGEF", "enrichment ratio": "≤ 0.25"}
{"variant": "RLCG", "enrichment ratio": "≤ 0.25"}
{"variant": "MAPP", "enrichment ratio": "≤ 0.25"}
{"variant": "IKHF", "enrichment ratio": "≤ 0.25"}
{"variant": "WAWD", "enrichment ratio": "≤ 0.25"}
{"variant": "YPRQ", "enrichment ratio": "≤ 0.25"}
{"variant": "NDGA", "enrichment ratio": "≤ 0.25"}
{"variant": "RNKR", "enrichment ratio": "≤ 0.25"}
{"variant": "GEIV", "enrichment ratio": 8.51}
{"variant": "AWHR", "enrichment ratio": 1.51}
{"variant": "KTDF", "enrichment ratio": "≤ 0.25"}
{"variant": "RDCV", "enrichment ratio": "≤ 0.25"}
{"variant": "LLDY", "enrichment ratio": "≤ 0.25"}
{"variant": "WIYC", "enrichment ratio": "≤ 0.25"}
{"variant": "QSHM", "enrichment ratio": 9.47}
{"variant": "GYFP", "enrichment ratio": "≤ 0.25"}
{"variant": "NSYD", "enrichment ratio": "≤ 0.25"}
{"variant": "AVCT", "enrichment ratio": 6.04}
{"variant": "NITI", "enrichment ratio": "≤ 0.25"}
{"variant": "WVKH", "enrichment ratio": "≤ 0.25"}
{"variant": "VSMM", "enrichment ratio": 2.19}
{"variant": "FIAV", "enrichment ratio": "≤ 0.25"}
{"variant": "VSQP", "enrichment ratio": "≤ 0.25"}
{"variant": "SYAC", "enrichment ratio": "≤ 0.25"}
{"variant": "HNPM", "enrichment ratio": "≤ 0.25"}
{"variant": "QPRY", "enrichment ratio": "≤ 0.25"}
{"variant": "VVVL", "enrichment ratio": "≤ 0.25"}
{"variant": "KDLH", "enrichment ratio": "≤ 0.25"}
{"variant": "VKTI", "enrichment ratio": "≤ 0.25"}
{"variant": "DPSY", "enrichment ratio": "≤ 0.25"}
{"variant": "PTYH", "enrichment ratio": "≤ 0.25"}
{"variant": "WQTA", "enrichment ratio": "≤ 0.25"}
{"variant": "VEYL", "enrichment ratio": "≤ 0.25"}
{"variant": "TVWG", "enrichment ratio": "≤ 0.25"}
{"variant": "VNRH", "enrichment ratio": "≤ 0.25"}
{"variant": "GVSI", "enrichment ratio": 2.12}
{"variant": "MYYP", "enrichment ratio": "≤ 0.25"}
{"variant": "IEIA", "enrichment ratio": "≤ 0.25"}
{"variant": "LCMD", "enrichment ratio": "≤ 0.25"}
{"variant": "GHPR", "enrichment ratio": "≤ 0.25"}
{"variant": "MHHA", "enrichment ratio": "≤ 0.25"}
{"variant": "TLWH", "enrichment ratio": "≤ 0.25"}
{"variant": "FPVV", "enrichment ratio": "≤ 0.25"}
{"variant": "QFYL", "enrichment ratio": "≤ 0.25"}
{"variant": "MNAL", "enrichment ratio": 6.96}
{"variant": "QTEY", "enrichment ratio": "≤ 0.25"}
{"variant": "WAVS", "enrichment ratio": "≤ 0.25"}
{"variant": "DALM", "enrichment ratio": "≤ 0.25"}
{"variant": "QCPR", "enrichment ratio": "≤ 0.25"}
{"variant": "KGWG", "enrichment ratio": "≤ 0.25"}
{"variant": "HIFL", "enrichment ratio": "≤ 0.25"}
{"variant": "HCDR", "enrichment ratio": "≤ 0.25"}
{"variant": "ADML", "enrichment ratio": 21.8}
{"variant": "LMLI", "enrichment ratio": "≤ 0.25"}
{"variant": "VRYF", "enrichment ratio": "≤ 0.25"}
{"variant": "EQIV", "enrichment ratio": "≤ 0.25"}
{"variant": "TTHP", "enrichment ratio": "≤ 0.25"}
{"variant": "DGPM", "enrichment ratio": "≤ 0.25"}
{"variant": "HPHH", "enrichment ratio": "≤ 0.25"}
{"variant": "ACMI", "enrichment ratio": 21}
{"variant": "MFMW", "enrichment ratio": "≤ 0.25"}
{"variant": "YQFP", "enrichment ratio": "≤ 0.25"}
{"variant": "DQFS", "enrichment ratio": "≤ 0.25"}
{"variant": "HQHA", "enrichment ratio": "≤ 0.25"}
{"variant": "NVLW", "enrichment ratio": "≤ 0.25"}
{"variant": "AYDY", "enrichment ratio": "≤ 0.25"}
{"variant": "FGCH", "enrichment ratio": "≤ 0.25"}
{"variant": "WAKK", "enrichment ratio": "≤ 0.25"}
{"variant": "IQTE", "enrichment ratio": "≤ 0.25"}
{"variant": "FKLV", "enrichment ratio": 6.1}
{"variant": "EVKS", "enrichment ratio": "≤ 0.25"}
{"variant": "TMVP", "enrichment ratio": "≤ 0.25"}
{"variant": "HFKQ", "enrichment ratio": "≤ 0.25"}
{"variant": "ASQR", "enrichment ratio": "≤ 0.25"}
{"variant": "MKGV", "enrichment ratio": "≤ 0.25"}
{"variant": "LDHT", "enrichment ratio": "≤ 0.25"}
{"variant": "REMY", "enrichment ratio": "≤ 0.25"}
{"variant": "GNKL", "enrichment ratio": "≤ 0.25"}
{"variant": "IWGR", "enrichment ratio": "≤ 0.25"}
{"variant": "HCTK", "enrichment ratio": "≤ 0.25"}
{"variant": "PDYF", "enrichment ratio": "≤ 0.25"}
{"variant": "VIMR", "enrichment ratio": "≤ 0.25"}
{"variant": "WIYH", "enrichment ratio": "≤ 0.25"}
{"variant": "NWWY", "enrichment ratio": "≤ 0.25"}
{"variant": "TGSF", "enrichment ratio": 5.31}
{"variant": "MVQR", "enrichment ratio": "≤ 0.25"}
{"variant": "YKIS", "enrichment ratio": "≤ 0.25"}
{"variant": "QLCL", "enrichment ratio": "≤ 0.25"}
{"variant": "HGPI", "enrichment ratio": "≤ 0.25"}
{"variant": "HMKC", "enrichment ratio": "≤ 0.25"}
{"variant": "KTVH", "enrichment ratio": "≤ 0.25"}
{"variant": "SKHN", "enrichment ratio": 2.27}
{"variant": "RILW", "enrichment ratio": "≤ 0.25"}
{"variant": "PSKG", "enrichment ratio": "≤ 0.25"}
{"variant": "SGFM", "enrichment ratio": 5.94}
{"variant": "HEEP", "enrichment ratio": 0.824}
{"variant": "SPWH", "enrichment ratio": "≤ 0.25"}
{"variant": "VENS", "enrichment ratio": "≤ 0.25"}
{"variant": "KAYG", "enrichment ratio": "≤ 0.25"}
{"variant": "RKHY", "enrichment ratio": "≤ 0.25"}
{"variant": "YVPN", "enrichment ratio": "≤ 0.25"}
{"variant": "NWGY", "enrichment ratio": "≤ 0.25"}
{"variant": "VQGW", "enrichment ratio": "≤ 0.25"}
{"variant": "PIDM", "enrichment ratio": "≤ 0.25"}
{"variant": "YLSD", "enrichment ratio": "≤ 0.25"}
{"variant": "TMEC", "enrichment ratio": 11.9}
{"variant": "LEVE", "enrichment ratio": "≤ 0.25"}
{"variant": "DYLS", "enrichment ratio": "≤ 0.25"}
{"variant": "VRHI", "enrichment ratio": "≤ 0.25"}
{"variant": "KAYA", "enrichment ratio": "≤ 0.25"}
{"variant": "MDSC", "enrichment ratio": "≤ 0.25"}
{"variant": "VDTI", "enrichment ratio": "≤ 0.25"}
{"variant": "SHTN", "enrichment ratio": "≤ 0.25"}
{"variant": "PSPG", "enrichment ratio": "≤ 0.25"}
{"variant": "MQVC", "enrichment ratio": "≤ 0.25"}
{"variant": "VAMF", "enrichment ratio": "≤ 0.25"}
{"variant": "FFSK", "enrichment ratio": "≤ 0.25"}
{"variant": "PDHK", "enrichment ratio": "≤ 0.25"}
{"variant": "RLFP", "enrichment ratio": "≤ 0.25"}
{"variant": "QFIL", "enrichment ratio": "≤ 0.25"}
{"variant": "KVQK", "enrichment ratio": "≤ 0.25"}
{"variant": "MWQS", "enrichment ratio": "≤ 0.25"}
{"variant": "LKRQ", "enrichment ratio": "≤ 0.25"}
{"variant": "PMCW", "enrichment ratio": "≤ 0.25"}
{"variant": "WKMC", "enrichment ratio": "≤ 0.25"}
{"variant": "FGKF", "enrichment ratio": "≤ 0.25"}
{"variant": "ESHN", "enrichment ratio": "≤ 0.25"}
{"variant": "IISD", "enrichment ratio": "≤ 0.25"}
{"variant": "KSGL", "enrichment ratio": "≤ 0.25"}
{"variant": "FRWE", "enrichment ratio": "≤ 0.25"}
{"variant": "DVDG", "enrichment ratio": "≤ 0.25"}
{"variant": "FDCD", "enrichment ratio": "≤ 0.25"}
{"variant": "FQHH", "enrichment ratio": "≤ 0.25"}
{"variant": "MNWG", "enrichment ratio": 15.6}
{"variant": "FHAP", "enrichment ratio": "≤ 0.25"}
{"variant": "TDTV", "enrichment ratio": 2.99}
{"variant": "IVKQ", "enrichment ratio": "≤ 0.25"}
{"variant": "YQKI", "enrichment ratio": "≤ 0.25"}
{"variant": "GYSE", "enrichment ratio": "≤ 0.25"}
{"variant": "ICHC", "enrichment ratio": "≤ 0.25"}
{"variant": "YKHL", "enrichment ratio": "≤ 0.25"}
{"variant": "EDYY", "enrichment ratio": "≤ 0.25"}
{"variant": "QVFT", "enrichment ratio": "≤ 0.25"}
{"variant": "NRQT", "enrichment ratio": "≤ 0.25"}
{"variant": "PVRC", "enrichment ratio": "≤ 0.25"}
{"variant": "YAHG", "enrichment ratio": "≤ 0.25"}
{"variant": "RCWY", "enrichment ratio": "≤ 0.25"}
{"variant": "VLCS", "enrichment ratio": "≤ 0.25"}
{"variant": "QRYG", "enrichment ratio": "≤ 0.25"}
{"variant": "WQWS", "enrichment ratio": "≤ 0.25"}
{"variant": "YCGQ", "enrichment ratio": "≤ 0.25"}
{"variant": "IRHN", "enrichment ratio": "≤ 0.25"}
{"variant": "ENNR", "enrichment ratio": "≤ 0.25"}
{"variant": "KHLT", "enrichment ratio": "≤ 0.25"}
{"variant": "AQES", "enrichment ratio": "≤ 0.25"}
{"variant": "HTFQ", "enrichment ratio": "≤ 0.25"}
{"variant": "TWYV", "enrichment ratio": "≤ 0.25"}
{"variant": "WRGF", "enrichment ratio": "≤ 0.25"}
